# Results reported in PubChem BioAssay AID1460 (National Center for Advancing Translational Sciences (NCATS), 2008).
# Hit rate of the full screen: of about 270,000 compounds, about 5,800 (2.1%) were called active. Inconclusive results, whose numbers are uncertain, are shown with a selection of clear calls. The call rests on the fitted dose curve; in most records, active means well fitted inhibition curve with a large enough effect; inconclusive means small, poorly fitted or top-dose-only effect; inactive means flat fitted curve, though single readings scatter. Potencies of inconclusive entries are doubtful fits and often do not repeat.
# Target: Microtubule-associated protein tau (Homo sapiens) (UniProt P10636)
# Test: qHTS for Inhibitors of Tau Fibril Formation, Thioflavin T Binding; further: nearly all actives have a fitted effect of over 55% in size
# Conditions: recombinant tau K18 P301L (four-repeat tau fragment), heparin-induced fibrillization, ThT fluorescence; series mostly up to 57.4 µM
# In short: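 Heparin-induced fibrillization of the P301L-mutant K18 repeat-domain fragment of human tau was followed by ThT binding in quantitative high-throughput format.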
# Potency means the concentration at half of the fitted maximal effect; tags describe the fitted curve by direction and shape.
# Sequence of UniProt P10636 (P10636 whole entry, looked up): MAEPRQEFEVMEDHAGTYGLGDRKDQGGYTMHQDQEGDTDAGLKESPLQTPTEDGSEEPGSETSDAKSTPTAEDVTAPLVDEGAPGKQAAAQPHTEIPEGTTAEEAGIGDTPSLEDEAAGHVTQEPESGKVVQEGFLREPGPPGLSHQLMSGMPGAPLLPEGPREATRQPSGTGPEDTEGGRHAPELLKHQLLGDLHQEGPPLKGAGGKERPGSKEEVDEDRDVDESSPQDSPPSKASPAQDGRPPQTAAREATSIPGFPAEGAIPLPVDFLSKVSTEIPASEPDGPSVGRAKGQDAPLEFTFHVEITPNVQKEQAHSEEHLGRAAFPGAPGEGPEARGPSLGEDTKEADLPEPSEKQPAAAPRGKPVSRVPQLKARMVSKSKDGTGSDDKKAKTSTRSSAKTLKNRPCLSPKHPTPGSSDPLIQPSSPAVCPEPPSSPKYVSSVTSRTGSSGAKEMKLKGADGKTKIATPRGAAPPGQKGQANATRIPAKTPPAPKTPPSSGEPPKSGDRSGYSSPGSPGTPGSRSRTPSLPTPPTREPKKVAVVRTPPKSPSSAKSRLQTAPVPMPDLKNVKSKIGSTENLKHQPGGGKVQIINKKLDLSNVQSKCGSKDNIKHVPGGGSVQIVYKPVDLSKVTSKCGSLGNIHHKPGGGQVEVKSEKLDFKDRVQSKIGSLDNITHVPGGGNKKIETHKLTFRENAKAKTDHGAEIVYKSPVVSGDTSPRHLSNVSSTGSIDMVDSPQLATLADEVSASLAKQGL
row,SMILES,Potency
1,N#CCC(=O)Nc1sc2c(c1C(N)=O)CCCC2,"inconclusive: 12.6 µM [inhibitor, partial curve]"
2,COc1ccc(CN(CC2CCCO2)C(=O)c2cc3sccc3n2C)c(OC)c1 (stereo not given),"inconclusive: 28.2 µM [inhibitor, single point]"
3,C=CCN1C(=O)N/C(=C/c2ccc(C)o2)C1=O,active: 25.1 µM
4,COc1cccc(C2C3CN(C)CC=C3C(C#N)=C(N)C2(C#N)C#N)c1OC (stereo not given),"inconclusive: 31.6 µM [inhibitor, single point]"
5,C/C=C/c1ccc(OCCn2cncn2)c(OC)c1,inactive
6,Fc1ccc(C2=CC(c3ccc(F)cc3)n3c(nc4ccccc43)N2)cc1 (stereo not given),"inconclusive: 15.8 µM [inhibitor, partial curve]"
7,CC(C)=C1C(=O)C(c2ccccc2)=C2CN3C(=O)N(CCc4ccccc4)C(=O)[C@]3(Cc3ccc(C(F)(F)F)cc3)[C@H]21,"inconclusive: 17.8 µM [inhibitor, partial curve]"
8,CCOC(=O)C1=C(C)Nc2nc(SCC)nn2C1c1ccc(OC)cc1 (stereo not given),inactive
9,COc1ccc(C2=NN(C(N)=S)C(c3ccccc3)C2)cc1 (stereo not given),inactive
10,Cc1ccc(S(=O)(=O)N2CCOCC2)cc1C(=O)NCCN1C(=O)S/C(=C\c2ccccc2Cl)C1=O,inactive
11,NNc1nc(C(F)(F)F)nc2ccccc12,"inconclusive: 39.8 µM [inhibitor, single point]"
12,CCC1(CC)Cc2ccccc2C(CC(=O)N2CCOCC2)=N1,"inconclusive: 44.7 µM [inhibitor, single point]"
13,O=C(NCCN1CCN(c2ccccc2)CC1)Nc1cccc(Br)c1,"inconclusive: 35.5 µM [inhibitor, partial curve]"
14,CC1(C)CC(=O)c2cc(-c3nc(-c4ccccc4)cs3)c(=O)[nH]c2C1,inactive
15,Fc1ccccc1N1CCN(Cc2nc(-c3ccc(Cl)cc3Cl)no2)CC1,"inconclusive: 2 µM [inhibitor, partial curve]"
16,Cc1ccc(-n2ncc3c(SCc4ccccn4)ncnc32)c(C)c1,"inconclusive: 28.2 µM [inhibitor, single point]"
17,Fc1cccc(/C=C2\CCCC3=C2NC(=S)NC3c2cccc(F)c2)c1 (stereo not given),"inconclusive: 8.91 µM [inhibitor, partial curve]"
18,O=C1C(c2ccccn2)=[N+]([O-])c2ccccc21,active: 3.98 µM
19,CCOC(=O)c1cnc(SCC(=O)c2ccc3c(c2)OCCO3)nc1N,"inconclusive: 8.91 µM [inhibitor, partial curve]"
20,Cc1cccc(Cn2cc3c(=O)n(CC(=O)Nc4c(C)cccc4C)nc-3c3cc(F)ccc32)c1,"inconclusive: 31.6 µM [inhibitor, partial curve]"
21,COc1ccc(N(C(=O)CCl)C(C(=O)NCCc2ccccc2)c2cccs2)cc1Cl (stereo not given),"inconclusive: 11.2 µM [inhibitor, partial curve]"
22,COc1cc(C(=O)N/N=C/c2ccccn2)cc(OC)c1OC,inactive
23,CCCn1c(C)cc(C(=O)COc2ccc(-c3nnco3)cc2)c1C,"inconclusive: 35.5 µM [inhibitor, single point]"

row,SMILES,Potency
1,O=C1CCC(C(=O)N(c2ccccc2)C2(C(=O)NC3CCCCC3)CCCCC2)N1 (stereo not given),inactive
2,Cc1nnc(C)n1-c1ccc(C(=O)Nc2cccc(Br)c2)cc1,inactive
3,COc1cc(/C=C2/C(=O)NN(c3cccc(F)c3)C2=O)ccc1OC(=O)c1ccco1,"inconclusive: 15.8 µM [inhibitor, partial curve]"
4,Cc1sc2nc(CC(=O)N3CCCC3)[nH]c(=O)c2c1C,inactive
5,O=C1c2ccccc2C(Nc2ccc3c(c2)OCCO3)N1Cc1ccc2c(c1)OCO2 (stereo not given),"inconclusive: 15.8 µM [inhibitor, single point]"
6,COc1ccc(-c2nc3ccccc3s2)cc1O,"inconclusive: 0.1 µM [inhibitor, full curve]"
7,Cc1ccc(NC(=S)NNC(=O)Nc2ccccc2)cc1,"inconclusive: 25.1 µM [inhibitor, single point]"
8,CC[n+]1ccc(/C=C/c2ccc(N(C)C)cc2)c2ccccc21,active: 1.41 µM
9,CCOc1cccc(Nc2nn(-c3ccc(OC(F)(F)F)cc3)nc2C(C)=O)c1,inactive
10,COc1ccc2[nH]c3c(N4CCN(Cc5ccc6c(c5)OCO6)CC4)ncnc3c2c1,"inconclusive: 25.1 µM [inhibitor, partial curve]"
11,Cc1ccc(/C=C/C(=O)Nc2ccccc2C(N)=O)cc1,inactive
12,CCCS(=O)(=O)N1CCC(C(=O)NC2CCC(C)CC2)CC1 (stereo not given),inactive
13,COc1ccc(-c2noc(N3CCC(C(=O)N4CCN(c5ccccc5OC)CC4)CC3)n2)cc1,"inconclusive: 17.8 µM [inhibitor, partial curve]"
14,Cc1cccc2c1-c1sc(C(=O)N3CCN(c4ccccc4)CC3)cc1CO2,"inconclusive: 3.16 µM [inhibitor, partial curve]"
15,O=C(COc1cccc(NC(=O)c2cccs2)c1)c1ccc(F)cc1,"inconclusive: 2.82 µM [inhibitor, partial curve]"
16,Cc1nc2ncnn2c(C)c1CCC(=O)Nc1ccc(S(=O)(=O)N2CCCCCC2)cc1,inactive
17,NC(=O)CC(NC(=O)c1ccc(Br)cc1)c1ccc(NCCc2ccc(F)cc2)c([N+](=O)[O-])c1 (stereo not given),"inconclusive: 11.2 µM [inhibitor, partial curve]"
18,CCCC(=O)c1cc(F)c(N2CCN(C(=O)OCC)CC2)cc1C,"inconclusive: 1.26 µM [inhibitor, full curve]"
19,C/C(Cn1nnc([N+](=O)[O-])n1)=N\NC(=O)c1ccc(O)cc1O,"inconclusive: 28.2 µM [inhibitor, single point]"
20,CCOc1ccc(NC(=O)CSc2nc3ccsc3c(=O)n2C(C)CC)cc1 (stereo not given),inactive
21,O=C(N/N=C\c1ccc(F)cc1)c1csnn1,"inconclusive: 14.1 µM [inhibitor, partial curve]"
22,Cc1cc(C)nc(SCC(=O)N/N=C/c2cc(C)n(-c3ccccc3C)c2C)n1,"inconclusive: 31.6 µM [inhibitor, single point]"
